In all, about 310,000 compounds went through this assay and about 2,200 (0.71%) showed an effect of 50% or more. The effect is printed as a negative number. The list shows a part of the results.
Each compound was assayed against human ether-à-go-go-related gene (hERG) potassium channel (human, UniProt Q12809) (assay: primary screen, population patch clamp on CHO cells stably expressing hERG).
Sequence of human ether-à-go-go-related gene (hERG) potassium channel (Q12809 whole entry, looked up): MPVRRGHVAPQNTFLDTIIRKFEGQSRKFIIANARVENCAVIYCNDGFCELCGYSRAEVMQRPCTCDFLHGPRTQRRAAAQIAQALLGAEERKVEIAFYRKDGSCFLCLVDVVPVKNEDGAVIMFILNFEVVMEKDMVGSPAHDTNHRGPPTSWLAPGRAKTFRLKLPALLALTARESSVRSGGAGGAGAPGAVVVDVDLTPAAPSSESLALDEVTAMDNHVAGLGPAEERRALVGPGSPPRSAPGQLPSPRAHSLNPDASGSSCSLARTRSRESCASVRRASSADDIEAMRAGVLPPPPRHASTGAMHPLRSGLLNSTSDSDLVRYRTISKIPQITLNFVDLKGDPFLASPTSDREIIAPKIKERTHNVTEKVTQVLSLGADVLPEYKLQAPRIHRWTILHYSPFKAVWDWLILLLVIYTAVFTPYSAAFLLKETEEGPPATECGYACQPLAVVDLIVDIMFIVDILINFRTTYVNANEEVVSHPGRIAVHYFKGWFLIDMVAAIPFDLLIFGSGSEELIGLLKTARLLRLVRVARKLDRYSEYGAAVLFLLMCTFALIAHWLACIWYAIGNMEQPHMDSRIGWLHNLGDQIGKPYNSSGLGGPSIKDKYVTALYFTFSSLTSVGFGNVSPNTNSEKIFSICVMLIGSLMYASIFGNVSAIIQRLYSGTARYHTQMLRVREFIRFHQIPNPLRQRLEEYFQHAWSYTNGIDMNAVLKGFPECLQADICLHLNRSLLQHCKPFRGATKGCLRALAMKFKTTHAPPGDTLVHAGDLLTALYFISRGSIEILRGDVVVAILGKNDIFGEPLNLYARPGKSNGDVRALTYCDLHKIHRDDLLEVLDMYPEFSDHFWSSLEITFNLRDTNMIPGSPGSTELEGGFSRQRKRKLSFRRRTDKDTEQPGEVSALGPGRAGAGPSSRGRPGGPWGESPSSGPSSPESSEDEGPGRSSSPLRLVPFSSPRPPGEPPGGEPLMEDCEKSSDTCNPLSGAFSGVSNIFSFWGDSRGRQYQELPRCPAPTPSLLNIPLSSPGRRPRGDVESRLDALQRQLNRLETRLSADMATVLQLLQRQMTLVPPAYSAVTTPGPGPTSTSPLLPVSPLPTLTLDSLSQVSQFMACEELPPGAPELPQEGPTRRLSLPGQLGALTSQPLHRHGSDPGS

In order of falling “hERG current change (%, negative = inhibition) at 1uM” value:
1. COc1ccc(Br)cc1-c1noc(-c2ccccc2F)n1  17.8%
2. Cl.O=C(NC12CC3CC(CC(C3)C1)C2)OCCNC1CCCCC1  15.6%
3. O=C(CCCSc1nnc(SCCCC(=O)c2ccc(F)cc2)s1)c1ccc(F)cc1  15.6%
4. COC(=O)C1=C(c2ccc(C(C)=O)cc2)C[C@@H]2CC[C@H]1N2C(=O)N1CCC(C)CC1  15.2%
5. CCc1ccc(NC(=O)NNC(=O)c2ccc3ccccc3c2O)cc1  15.2%
6. Cc1cc2oc(=O)c(CC(=O)O)c(C)c2c2occ(C(C)(C)C)c12  14.6%
7. CCn1cc2c(c1-c1cccc(C)c1)c(=O)n(C)c(=O)n2C  13.4%
8. CC(C)Oc1ccc(C(=O)Nc2ccc(Cl)c(S(=O)(=O)Nc3ccc(Cl)cc3)c2)cc1  13%
9. CCCCCCSc1nnc2[nH]c(=O)cc(N)n12  12.3%
10. COc1cc(OC)cc(C(=O)NNC(=O)c2ccc(S(=O)(=O)N3CC(C)OC(C)C3)cc2)c1 (stereo not drawn)  12%
11. O=C(Nc1cccc([N+](=O)[O-])c1)Nc1cccc([N+](=O)[O-])c1  11.8%
12. CCN1CCN(Cc2ccc(NC(=O)c3ccc(C)c(NC(=O)c4ccc5n[nH]nc5c4)c3)cc2C(F)(F)F)CC1  11.4%
13. NC(=O)C1CCCN(Cc2ccc3ccccc3c2)C1 (stereo not drawn)  11.2%
14. CCN(CC)c1ccc(-c2c(C#N)c(N)nc(OC)c2C#N)cc1  11%
15. Cc1cc(C)c2cc(CN(Cc3ccc4c(c3)OCO4)Cc3nnnn3Cc3ccco3)c(=O)[nH]c2c1  10.8%
16. CC(=O)Oc1ccc(C(=O)Nc2ccc3c(c2)C(=O)N(CCC(=O)O)C3=O)cc1  10.6%
17. N#Cc1c(NCCCO)nc(-c2ccccc2)c2c1CCCC2  10.5%
18. COc1cccc(C(C(=O)NC2CCCC2)N(CC2CCCO2)C(=O)Cc2cccs2)c1 (stereo not drawn)  10.2%
19. CSc1ccccc1C(=O)Nc1cccc(C(C)=O)c1  10%
20. COc1cccc(C(=O)NCCSCc2ccccc2Cl)c1  9.14%
21. COc1ccc(/C=C/C(=O)c2ccc[nH]2)cc1OC  8.46%
22. O=C(CSc1ncnc2scc(-c3ccccc3)c12)NC1CCS(=O)(=O)C1 (stereo not drawn)  7.97%
23. O=C(COc1ccc(Cl)cc1)OCC(=O)N1CCCC1  7.62%
24. C=CCNC(=O)c1onc(CSc2ccccc2)c1C(=O)NCC=C  6.41%
25. COc1ccc(-n2c(=O)c(CCC(=O)N(C)Cc3cccs3)nc3ccccc32)cc1  6.29%
26. C[C@H](O)[C@H](O)[C@H]1CNc2nc(N)[nH]c(=O)c2N1.Cl  5.49%
27. CN(CC1CCCO1)S(=O)(=O)c1ccc(C(=O)N2CCN(c3ccccc3)CC2)cc1 (stereo not drawn)  5.16%
28. CN(C)c1ccc(-c2ccc3c(=O)c4ccccc4n(C)c3c2)cn1  5.09%
29. COC(=O)c1ccc(-n2c(C)ccc2-c2ccccc2)cc1  5%
30. COc1ccc(C(=O)Nc2cc(Cl)ccc2-n2cncn2)c(OC)c1OC  4.68%
31. Cn1c(=O)c2c(-c3ccccc3)n(-c3ccccc3O)cc2n(C)c1=O  4.07%
32. CCC1(c2ccc(F)cc2)NC(=O)N(CC(=O)N2CCOCC2)C1=O (stereo not drawn)  3.59%
33. CC(=O)Nc1nc(NC(=O)/C=C/c2ccccc2)n(-c2ccccc2)n1  3.03%
34. CCOc1ccc(Cc2nnc(N)s2)cc1OCC  2.08%
35. Cc1cccc(OCc2nnc(SCc3cc(=O)n4cc(Br)ccc4n3)o2)c1  1.61%
36. CCN(CC)CCNC(=O)CS(=O)Cc1nc(-c2ccccc2Cl)oc1C (stereo not drawn)  0.188%
37. O=C(CSc1nc2nc(-c3cccs3)cc(C(F)(F)F)c2c(=O)[nH]1)Nc1ccc(F)c(F)c1  0.142%
38. c1ccc(-n2ncc(-c3nn[nH]n3)n2)cc1  -0.154%
39. CCCS(=O)(=O)N1CCCC(C(=O)NCCc2ccc(OC)c(OC)c2)C1 (stereo not drawn)  -0.42%
40. O=C(NCCN1CCN(C(=O)c2cc3ccccc3oc2=O)CC1)c1cc2ccccc2oc1=O  -0.615%
41. CCOC(=O)c1c(C)[nH]c(C)c1C(=O)CSc1nc(N)cc(=O)[nH]1  -1.72%
42. Cc1ccc(C(NC(=O)N2CCOCC2)=C(Cl)Cl)cc1F  -2.33%
43. CCc1ccc(NC(=O)C2CCN(S(=O)(=O)c3c(C)[nH]c(=O)[nH]c3=O)CC2)cc1  -3.88%
44. CCc1[nH]nc2c1C1(CCN(C(=O)c3ccccc3)CC1)C(C#N)=C(N)O2  -6.15%
45. O=C(c1cccc(S(=O)(=O)N2CCN(c3ccccc3)CC2)c1)N1CCN(c2ccccc2O)CC1  -9.06%
46. CCN(c1ccccc1)S(=O)(=O)c1cccc(C(=O)NCC2(N(C)C)CCCCC2)c1  -11%
47. Cc1c2cnn(-c3ccccc3)c(=O)c2c(C)n1CCCC(=O)N1CCN(C)CC1  -11.5%
48. CCc1ccc(NC(=O)CSc2nc(=O)n(CCCN3CCOCC3)c3c2CCCC3)cc1  -12.5%
49. COc1ccc(-c2nn(Cc3ccccc3)cc2C(=O)N2CCN(c3ccccn3)CC2)cc1OC  -12.6%
50. O=C(NCC1CCCN(C2Cc3ccccc3C2)C1)c1cccs1 (stereo not drawn)  -13.9%
51. CC(C)C[C@H]1CN=C(Nc2ccccc2)N1CC1CCC(C(C)(C)C)CC1 (stereo partly drawn)  -14.4%
52. Cc1cc(N2CCOCC2)nc2ccc(NC(=O)C3CCC(C)CC3)cc12 (stereo not drawn)  -16.6%
53. NS(=O)(=O)c1ccc(CCNc2nc(CN3CCCCC3)nc3sc4c(c23)CCC4)cc1  -53%
54. COc1cc(C(CCN2CCCCC2)c2c(OC)cc(OC)c3c(C)cc(=O)oc23)cc(OC)c1OC (stereo not drawn)  -96.3%

Source: paper PMC4336329 (PLoS ONE, 2015)
